Reference: PubChem BioAssay AID1347073 (National Center for Advancing Translational Sciences (NCATS), 2019)
Out of some 45,000 compounds screened, about 200 (0.44%) were called active. About 7% were inconclusive and are not listed. Calls come from the whole dose curve; as a rule, active = well fitted activation curve with a large enough effect; inconclusive = small, poorly fitted or top-dose-only effect; inactive = no such curve, though single readings can be large or run the other way. The list shows a part of the results.

Experiment: qHTS of TDP-43 Inhibitors: NCGC Sytravon Library Screen; note: 0% is about no effect; nearly all actives have a fitted effect of over 55% in size
Conditions: yeast TDP-43 toxicity rescue, BacTiter-Glo growth, 24 h; series mostly up to 46.1 µM; growth rescue (activation): at the top concentration
Outline: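 TDP-43-expressing yeast, pregrown in raffinose, seeded at OD600 0.02 in galactose medium with compound for 24 hr at 30 deg C. Growth read by BacTiter-Glo luminescence, so rescue of toxicity appears as activation.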

Compound	growth rescue (activation)
CC1=NNC(=O)C1CCC(=O)N/N=C(\C)c1ccccc1 (stereo not drawn)	inactive: -23%
COC(=O)c1cc(NS(=O)(=O)c2ccc(N3CCOCC3)c([N+](=O)[O-])c2)cc(C(=O)OC)c1	inactive: 14.6%
CC(=O)NC(Cc1ccc(F)c(F)c1)C(=O)NC1CCN(c2c(Cc3ccccc3)c(C)nc3ncnn23)CC1 (stereo not drawn)	inactive: 6.51%
COc1ccc(S(=O)(=O)N2CCCC(C(=O)NCc3cccnc3)C2)cc1 (stereo not drawn)	inactive: -6.55%
COc1ccc(/C=C/C(=O)NCC(=O)N/N=C(/CCC(=O)O)c2ccccc2)cc1	inactive: 16.6%
O=C1NC(NS(=O)(=O)c2ccccc2)(C(F)(F)F)C(=O)N1c1cccc(Cl)c1 (stereo not drawn)	inactive: -23.1%
C/C(CC(=O)NCc1ccccc1Cl)=N/NC(=O)c1ccccn1	inactive: -0.816%
COc1ccc(NN=Nc2nc3c([nH]2)c(=O)n(C)c(=O)n3C)cc1	inactive: 6.26%
Cc1nc(N2CCN(Cc3ccc4c(c3)OCO4)CC2)c2cc(-c3ccccc3)sc2n1	inactive: 22.3%
CCOC(=O)c1c(NCC(C)C)c2ccccc2[nH]c1=O	inactive: 2.77%
O=C(Nc1ccc2c3c(cccc13)CC2)c1cccc([N+](=O)[O-])c1	inactive: 15%
O=C(c1cc(COc2cccc(C(F)(F)F)c2)on1)N1CCc2ccccc2C1	inactive: 8.18%
Cc1ccccc1-n1ncc(C(C)NC(=O)c2ccco2)c1C (stereo not drawn)	inactive: 0.656%
CCOc1ccc(CCNC(=O)CSc2nnnn2C)cc1OCC	inactive: -6.54%
COc1cc([N+](=O)[O-])ccc1NC(=S)NCc1ccccn1	inactive: 21.7%
COC(=O)CNC(=O)CSc1nc2c(sc(=S)n2-c2ccccc2)c(=O)[nH]1	inactive: 4.22%
C=CCNC(=O)/C=C/c1c(F)cccc1Cl	inactive: 21%
O=C(Nc1cccc(Cl)c1)C1CCCN(C2=NS(=O)(=O)c3ccccc32)C1 (stereo not drawn)	inactive: 27.1%
CCCCCCN1CC(=O)N2Cc3[nH]c4ccccc4c3C[C@H]2C1=O	inactive: 9.89%
Cc1ccc(NC(=O)CC2CCCC2)c(Br)c1	inactive: 23.7%
CCN(CCn1cccn1)C(=O)c1cc(COc2cc(C)ccc2C)on1	inactive: 3.83%
CC(Oc1cccc(Cl)c1)C(=O)NCc1ccc(S(N)(=O)=O)cc1 (stereo not drawn)	inactive: -9.22%
C#CC(CC)(CC)NC(=O)c1nn(-c2ccccc2Cl)c(C)cc1=O	inactive: -1.7%

Compound	growth rescue (activation)
O=C(NC1CCCC1)C(c1ccccn1)N(Cc1ccccc1F)C(=O)c1csnn1 (stereo not drawn)	inactive: 9.67%
Oc1ccc(C=NC2CCCCC2)c(O)c1	inactive: 23%
O=C(CN1CCN(c2ccc(F)cc2)CC1)c1cccs1	inactive: -11.6%
O=C(OC1Cn2c(=O)ccc(=O)n2C1)c1ccccc1	inactive: 1.76%
O=C(NCc1ccc(Cl)nc1)c1csc([C@@H]2C[C@H](O)[C@@H](CO)O2)n1	inactive: -11.8%
O=C(COC(=O)c1cc([N+](=O)[O-])ccc1NCc1ccccc1)NCc1ccccc1Cl	inactive: 21.2%
CC1(C)Cc2nc3oc4c(NCCCN5CCOCC5)ncnc4c3cc2CO1	inactive: -7.42%
COc1ccccc1NS(=O)(=O)c1cccc(NS(=O)(=O)c2cc(C(=O)O)ccc2OC)c1	inactive: 20.1%
CCOCCCNC(=S)NCCc1ccccc1	inactive: 25.7%
OC[C@@H]1CN(Cc2ccncc2)C[C@H](n2cnc3c(NC4CC4)ncnc32)O1	inactive: 10.9%
CCCc1nnc(SCC(=O)NC2CC2)n1C	inactive: 2.19%
Cc1onc(-c2ccccc2Cl)c1C(=O)N1CCC(C(N)=O)CC1	inactive: -4.77%
CCN(c1ccccc1)S(=O)(=O)c1ccc(N2CCN(c3ccc(O)cc3)CC2)nc1	inactive: 17.6%
Cc1ccc(-c2nc(Nc3ccc(O)cc3)c3ccccc3n2)cc1	inactive: 2.69%
FC(F)(F)c1ccccc1NC(=S)Nc1ccccc1	inactive: -9.4%
O=S(=O)(NCc1nnc2ccccn12)c1ccc(F)cc1	inactive: -7.73%
CCN(CC)S(=O)(=O)c1ccc(C)c(NC(=S)NC2CCCCC2)c1	inactive: -29.4%
CCOC(=O)C(NC(=O)c1ccc(OC)cc1)(N1CCCC1=O)C(F)(F)F (stereo not drawn)	inactive: 1.21%
CCC1(C)Cc2ccccc2-c2c1c(=O)n(Cc1ccccc1)c1nnnn21 (stereo not drawn)	inactive: -26.7%
Cc1ccc(NC(=S)Nc2cccc(-c3n[nH]c(=S)o3)c2)cc1	inactive: 16.3%
Cc1cc(NC(=O)Cn2cnc3c2c(=O)n(C)c(=O)n3C)n(-c2ccccc2)n1	inactive: -17.9%
COc1cccc(C2C(C#N)=C(N)Oc3cc(N)ccc32)c1OC (stereo not drawn)	inactive: 25.3%
O=C(Nc1nc(-c2ccc(F)c(F)c2)cs1)c1ccc(OCC2CCCO2)cc1 (stereo not drawn)	inactive: -12.6%

Compound	growth rescue (activation)
O=C(NCC(=O)N1CCOCC1)c1ccccc1	inactive: 18.2%
Cc1cc(C)cc(NC(=O)N2CCN(C/C=C/c3ccccc3)CC2)c1	inactive: 6.31%
CC(C)COC(=O)C(C)Nc1n[nH]c(=S)[nH]c1=O (stereo not drawn)	inactive: -21.8%
Cc1ccc(-c2cnc(C(O)c3ccc(Cl)c(Cl)c3)[nH]2)cc1 (stereo not drawn)	inactive: -0.307%
O=C(Nc1ccccc1)c1cc(C2CCCN(C(=O)C3CC3)C2)on1 (stereo not drawn)	inactive: 9.66%
C=CCn1cc(C(=O)N2CCN(C)CC2)c(=O)c2cc(S(=O)(=O)N(CC)CC)ccc21	inactive: 0.466%
O=C(O)C1CCN(Cc2cccnc2)CC1	inactive: 2.18%
O=C(Nc1cccc(S(=O)(=O)NC2=NCCC2)c1)c1cc(-c2ccco2)nc2ccccc12	inactive: -0.568%
CCN=C1SC(CC(=O)Nc2ccc3c(c2)OCO3)C(=O)N1CC (stereo not drawn)	inactive: 12.9%
COc1cc(OC)cc(-c2cn[nH]c2N)c1	inactive: -15.2%
COc1cccc(C=Nc2ccc3c(c2)CCC3)c1O	inactive: -11.5%
O=c1[nH]c(N2CCN(Cc3ccc4c(c3)OCO4)CC2)nc2c1CCCC2	inactive: -0.544%
N#CCCN(C(=O)COC(=O)Cc1ccc(Br)cc1)c1ccccc1	inactive: -4.99%
O=C(c1ccccc1F)N1CCN(Cc2nc3sc4c(c3c(=O)[nH]2)CCCC4)CC1	inactive: 21.2%
CCOc1cc(NC(=S)NCc2ccco2)c(OCC)cc1NC(=O)C1CC1	inactive: 12.6%
CCOC(=O)c1c(CSc2cccs2)n(C)c2cc(Br)c(O)c(CN(C)C)c12	inactive: 0.118%
COc1ccc(N(C)C(=O)CCS(=O)(=O)c2cccc3nsnc23)cc1	inactive: 3.54%
O=C(COC(=O)CCc1ccc(S(=O)(=O)N2CCOCC2)cc1)NCc1ccc(Cl)cc1	inactive: 7.38%
Cc1ccccc1NC(=O)C1CCCN(C(=O)NCc2ccccc2)C1 (stereo not drawn)	inactive: 1.05%
CC(C)CC(CC(C)C)=NNC(=O)c1ccc2c(c1)OCO2	inactive: 21.7%
CCOc1ccc(-c2cc(C(=O)Nc3ccc(C)c(NS(C)(=O)=O)c3)[nH]n2)c(C)c1	inactive: 5.88%
O=C(CCc1ccccc1)NCCSCc1c(F)cccc1Cl	inactive: 21%
